# Source: the supplement of paper PMC10037445
# In all, about 2,900 compounds were measured (“IRF Lucia reporter activity, fold change vs agonist alone”: median about 0.9, highest 2% from about 2.8 on). The list shows a part of the results.
# Key:
# RAW-Dual [1] = test: IRF Lucia reporter activity, fold change vs agonist alone; cytotoxicity flag (confluency mask): not cytotoxic; higher = enhanced IRF activity
# How it was run: (§1)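 After 50 nL of library stock was delivered by pin tool to RAW-Dual macrophages (50,000 cells/well, DMEM, 384-well plates), a PRR agonist was added 1 h later and the plates were kept at 37 °C, 5% CO2. Twenty hours later, IRF was read from supernatant by QuantiLuc luminescence and NF-κB by QuantiBlue absorbance at 620 nm. Reporter activity is stated as fold change over agonist-alone wells. Wells with IncuCyte confluency under 70% of agonist controls in both mask sets were counted as cytotoxic.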
# RAW-Dual [2] = test: IRF Lucia reporter activity, fold change vs agonist alone; higher = enhanced IRF activity; conditions: agonist: MPLA (TLR4) […]
# How it was run: as §1
# RAW-Dual [3] = test: IRF Lucia reporter activity, fold change vs agonist alone; cytotoxicity flag (confluency mask): cytotoxic (confluency <70% of control); higher = enhanced IRF activity
# How it was run: as §1
# [4] = agonist: 3'3'-cGAMP (STING) 10 ug/mL
# [5] = library stock concentration (final ~1000-fold dilution): 10 mM, cytotoxicity flag (confluency mask): not cytotoxic
# [6] = library stock concentration (final ~1000-fold dilution): 2 mM, cytotoxicity flag (confluency mask): not cytotoxic
smiles,measurement,setting,value
Cc1ccc(-c2csc(NC(=O)c3ccccc3)n2)c(C)c1 (library stock concentration (final ~1000-fold dilution): 10 mM),IRF Lucia reporter activity,RAW-Dual [1]; [4],1.43
same,IRF Lucia reporter activity,RAW-Dual [1]; agonist: LPS (TLR4) 0.1 ug/mL,0.99
CC(=O)NC1=NN(C(C)=O)C(C)(c2ccccc2)S1 (stereo unspecified) (library stock concentration (final ~1000-fold dilution): 10 mM),IRF Lucia reporter activity,RAW-Dual [1]; [4],0.545
same,IRF Lucia reporter activity,RAW-Dual [1]; agonist: LPS (TLR4) 0.1 ug/mL,0.849
CC(=O)NC1=NN(C(C)=O)C(C)(c2ccccc2)S1 (stereo unspecified),IRF Lucia reporter activity,RAW-Dual [2]; [5],0.893
NC(Cc1ccc(Cl)cc1)C(=O)O (stereo unspecified),IRF Lucia reporter activity,RAW-Dual [2]; [5],1.03
NC(Cc1ccc(Cl)cc1)C(=O)O (stereo unspecified) (library stock concentration (final ~1000-fold dilution): 10 mM),IRF Lucia reporter activity,RAW-Dual [1]; [4],1.04
same,IRF Lucia reporter activity,RAW-Dual [1]; agonist: LPS (TLR4) 0.1 ug/mL,1.25
O=c1cc(N2CCOCC2)oc2c(-c3cccc4c3sc3ccccc34)cccc12,IRF Lucia reporter activity,RAW-Dual [2]; [6],2.7
O=c1cc(N2CCOCC2)oc2c(-c3cccc4c3sc3ccccc34)cccc12 (library stock concentration (final ~1000-fold dilution): 2 mM),IRF Lucia reporter activity,RAW-Dual [1]; [4],0.548
same,IRF Lucia reporter activity,RAW-Dual [1]; agonist: LPS (TLR4) 0.1 ug/mL,7.23
CCCCc1nc(-c2ccc(OCCCN(CC)CC)cc2)cn1-c1ccc(Oc2ccc(Cl)cc2)cc1 (library stock concentration (final ~1000-fold dilution): 10 mM),IRF Lucia reporter activity,RAW-Dual [3]; [4],0.691
same,IRF Lucia reporter activity,RAW-Dual [3]; agonist: LPS (TLR4) 0.1 ug/mL,0.116
CCCCc1nc(-c2ccc(OCCCN(CC)CC)cc2)cn1-c1ccc(Oc2ccc(Cl)cc2)cc1,IRF Lucia reporter activity,"RAW-Dual [2]; library stock concentration (final ~1000-fold dilution): 10 mM, cytotoxicity flag (confluency mask): cytotoxic (confluency <70% of control)",0.21
CCC(C)n1cc(C)c2c(C(=O)NCc3c(C)cc(C)[nH]c3=O)cc(-c3ccc(N4CCNCC4)nc3)cc21 (stereo unspecified),IRF Lucia reporter activity,RAW-Dual [2]; [6],0.958
CCC(C)n1cc(C)c2c(C(=O)NCc3c(C)cc(C)[nH]c3=O)cc(-c3ccc(N4CCNCC4)nc3)cc21 (stereo unspecified) (library stock concentration (final ~1000-fold dilution): 2 mM),IRF Lucia reporter activity,RAW-Dual [1]; [4],1.01
same,IRF Lucia reporter activity,RAW-Dual [1]; agonist: LPS (TLR4) 0.1 ug/mL,0.947
COc1ccc([C@@H]2CC(=O)c3c(O)cc(O[C@@H]4O[C@H](CO[C@@H]5O[C@@H](C)[C@H](O)[C@@H](O)[C@H]5O)[C@@H](O)[C@H](O)[C@H]4O)cc3O2)cc1O (library stock concentration (final ~1000-fold dilution): 10 mM),IRF Lucia reporter activity,RAW-Dual [1]; [4],0.845
same,IRF Lucia reporter activity,RAW-Dual [1]; agonist: LPS (TLR4) 0.1 ug/mL,1.09
O=c1ccc2ccc(O)cc2o1,IRF Lucia reporter activity,RAW-Dual [2]; [5],0.984
O=c1ccc2ccc(O)cc2o1 (library stock concentration (final ~1000-fold dilution): 10 mM),IRF Lucia reporter activity,RAW-Dual [1]; [4],1.01
same,IRF Lucia reporter activity,RAW-Dual [1]; agonist: LPS (TLR4) 0.1 ug/mL,0.663
O=c1ccc2ccc(OCCCCN3CCN(c4cccc5sccc45)CC3)cc2[nH]1 (library stock concentration (final ~1000-fold dilution): 10 mM),IRF Lucia reporter activity,RAW-Dual [1]; [4],1.06
same,IRF Lucia reporter activity,RAW-Dual [1]; agonist: LPS (TLR4) 0.1 ug/mL,1.36
O=c1ccc2ccc(OCCCCN3CCN(c4cccc5sccc45)CC3)cc2[nH]1,IRF Lucia reporter activity,RAW-Dual [2]; [5],1.08
C[N+](C)(C)CCCCCC[N+](C)(C)C (library stock concentration (final ~1000-fold dilution): 10 mM water),IRF Lucia reporter activity,RAW-Dual [1]; [4],1.43
same,IRF Lucia reporter activity,RAW-Dual [1]; agonist: LPS (TLR4) 0.1 ug/mL,1.05
C[N+](C)(C)CCCCCC[N+](C)(C)C,IRF Lucia reporter activity,"RAW-Dual [2]; library stock concentration (final ~1000-fold dilution): 10 mM water, cytotoxicity flag (confluency mask): not cytotoxic",1.39
Cn1cc(-c2ccc3ncc(Cc4ccc5ncccc5c4)n3n2)cn1,IRF Lucia reporter activity,RAW-Dual [2]; [5],0.482
Cn1cc(-c2ccc3ncc(Cc4ccc5ncccc5c4)n3n2)cn1 (library stock concentration (final ~1000-fold dilution): 10 mM),IRF Lucia reporter activity,RAW-Dual [1]; [4],0.218
same,IRF Lucia reporter activity,RAW-Dual [1]; agonist: LPS (TLR4) 0.1 ug/mL,0.43
Cc1ccc(NC(=O)Nc2cc(-c3ccccc3-c3nnn[nH]3)ccc2N(CC(C)C)CC(C)C)cc1 (library stock concentration (final ~1000-fold dilution): 10 mM),IRF Lucia reporter activity,RAW-Dual [3]; [4],0.933
same,IRF Lucia reporter activity,RAW-Dual [3]; agonist: LPS (TLR4) 0.1 ug/mL,2.09
Cc1cc(NC(=O)Nc2ccc(N(C)C)cc2)c2cc(F)cc(F)c2n1 (library stock concentration (final ~1000-fold dilution): 10 mM),IRF Lucia reporter activity,RAW-Dual [1]; [4],0.984
same,IRF Lucia reporter activity,RAW-Dual [1]; agonist: LPS (TLR4) 0.1 ug/mL,0.348
Cc1cc(NC(=O)Nc2ccc(N(C)C)cc2)c2cc(F)cc(F)c2n1,IRF Lucia reporter activity,RAW-Dual [2]; [5],0.858
Br.CCCc1cc(-c2nc(-c3ccc(C)cc3)cs2)ccn1 (library stock concentration (final ~1000-fold dilution): 10 mM),IRF Lucia reporter activity,RAW-Dual [3]; [4],1.18
same,IRF Lucia reporter activity,RAW-Dual [3]; agonist: LPS (TLR4) 0.1 ug/mL,1.46
C=C1CCC(O)CC1=CC=C1CCCC2(C)C1CCC2C(C)CCCC(C)C (stereo unspecified) (library stock concentration (final ~1000-fold dilution): 1 mM),IRF Lucia reporter activity,RAW-Dual [1]; [4],0.591
same,IRF Lucia reporter activity,RAW-Dual [1]; agonist: LPS (TLR4) 0.1 ug/mL,0.364
CC1CN(CC(Cc2ccccc2)C(=O)NCC(=O)O)CCC1(C)c1cccc(O)c1 (stereo unspecified),IRF Lucia reporter activity,RAW-Dual [2]; [5],0.979
CC1CN(CC(Cc2ccccc2)C(=O)NCC(=O)O)CCC1(C)c1cccc(O)c1 (stereo unspecified) (library stock concentration (final ~1000-fold dilution): 10 mM),IRF Lucia reporter activity,RAW-Dual [1]; [4],0.991
same,IRF Lucia reporter activity,RAW-Dual [1]; agonist: LPS (TLR4) 0.1 ug/mL,0.234
Cc1cn(C2C=CC(CO)O2)c(=O)[nH]c1=O (stereo unspecified),IRF Lucia reporter activity,RAW-Dual [2]; [5],0.978
Cc1cn(C2C=CC(CO)O2)c(=O)[nH]c1=O (stereo unspecified) (library stock concentration (final ~1000-fold dilution): 10 mM),IRF Lucia reporter activity,RAW-Dual [1]; [4],0.918
same,IRF Lucia reporter activity,RAW-Dual [1]; agonist: LPS (TLR4) 0.1 ug/mL,1.13
